From the RNAGym collection of RNA variant scans (doi:10.7554/elife.90254)
The source gives no read counts; variants with many changes may rest on few reads.

B1: LINE1-mini (parent)
chain: GGCAGAGCUCAACACAGCGUGGCAAAGUGGCUGUGGCUAGACUGCC

Variants of: B1
Assay: self-cleavage, relative activity (ratio to wild type); higher = more cleavage; in vitro, sequencing; the parent is a self-cleaving ribozyme

| Variant | self-cleavage |
| --- | --- |
| G33U C37G U43A | 0.03 |
| A6G U9G A26U G27A | 0.03 |
| C31U U38C C45U | 0.07 |
| A12U G21A G35C | 0.01 |
| C15A G21C C37G C46U | 0.03 |
| G7U A14C G17U G27A A39U | 0.25 |
| A24G U38G A39G | 0 |
| U20C U34C C37G | 0.02 |
| C18U G19U C23A C37U A41G | 0.02 |
| C8A G19C C31A | 0.04 |
| A6G U20G A39C C46A | 0 |
| G44C C45A C46A | 0.03 |
| G17C A24C G36U G44A | 0.02 |
| G7C U34A A41G | 0.01 |
| G5C C8U C15U G19A A41U | 0.26 |
| A16U U20A C23U G35C U38A | 0.04 |
| C8U A12C C23A C46U | 0.02 |
| A12G G19A G22U G33U U38G U43G | 0 |
| U9G U20C A26C | 0.02 |
| G7C C15G C46U | 0.12 |
| A6C C15U U28G G36U | 0.14 |
| A4C G7A G35C G36C | 0.02 |
| C3U A11G U20A C46G | 0.03 |
| G2U C8G G19C | 0.03 |

| Variant | self-cleavage |
| --- | --- |
| U28C G29U U32G | 0.01 |
| A4G C13U A16C | 0.26 |
| U20C U28G U34G | 0.07 |
| C3G A25G G29U | 0.13 |
| G5A G22U U32C G33U C42U | 0.03 |
| G21C G30U C37G U38G G44A | 0.01 |
| G1U A6G C18A C31U | 0.02 |
| U32A U34C G35U | 0.06 |
| A6C C15A G19U G30C U32G | 0.01 |
| C3U G5A G27A G33U | 0.13 |
| A4C C13A G29C | 0.13 |
| G5A A12G C42U | 0.06 |
| G1C G2U G27A G35U | 0.06 |
| C10G A26G C45U | 0.04 |
| G2A C8U G19U G22A U38C A41U | 0.87 |
| G1U G27U U43C | 0.01 |
| C3A C18A G29A U34A C37U U38G | 0.08 |
| A6U C18G G22C | 0.07 |
| C3U G29U A39G | 0.1 |
| G21A C23U A24C G27U | 0.99 |
| A4C U38G C42A | 0.07 |
| G22A A26U G44U | 0.39 |
| A12G C18G C23A | 0 |
| U20A G21C G27A | 0.73 |

| Variant | self-cleavage |
| --- | --- |
| G2C C10A A24G A25G A26C | 0.02 |
| G2C C45G C46U | 0.56 |
| C10A U20G G35U | 0 |
| C3G A16G G22C U28C | 0.02 |
| A11G G17U A26G G40A | 0.01 |
| G21A C31U G35C | 0.04 |
| G2C A6U C8U A12C G35A G44A | 0.05 |
| C10A G17U G22C C46A | 0 |
| C8G A14G A24C | 0.25 |
| C23A G27U C42U | 0.66 |
| G5A A14C C37U A41C | 0.05 |
| G1A U20C G30A G40U | 0.02 |
| A11U A26G G29C | 0.04 |
| C8U A14G A25U G33A | 0.3 |
| C10U C18G A24G | 0.08 |
| G7U C23A A26C G29U U32A G44U | 0.51 |
| G5U G33A A41G | 0 |
| A4U G5C U34A G36A | 0.03 |
| G7U G19A G36A | 0.22 |
| C37U C45A C46U | 0.13 |
| A6G U28C U43C | 0.06 |
| C23A A25C G36U | 0.04 |
| G5C A11G U32A G35A C37U U38A | 0.01 |
| G21U G27C C37A | 0.05 |

| Variant | self-cleavage |
| --- | --- |
| C23U G30A G40U | 0.28 |
| G1U C8A A24G | 0.17 |
| G5U C23U C31A C45U | 0.02 |
| C8U C23U A25C | 0.05 |
| C3A A14U U32G G40C G44U C46A | 0.04 |
| A4G C10A G29A C42U | 0 |
| C10A A41G G44A | 0.04 |
| C23U U38C G40U U43A | 0.03 |
| A6G A11U G17A G36U | 0.05 |
| A4G A6G C8A A14C C42G | 0.04 |
| C13A G33U G40C | 0.06 |
| C3A C8G C31U | 0.05 |
| A11G U28G C42A U43A | 0.02 |
| G2C A4U A11U C23G G30U C45G | 0.08 |
| A4C C10A U43G C45G | 0.01 |
| A11C A26G G27A C42A G44U | 0.02 |
| G2U A6U G7A A14C A16C G19U A26U U32A G40U | 0 |
| G17C G22A G35U | 0.03 |
| U9A G19C C46G | 0.18 |
| C15G G19C A24U G33U G40C U43G C46U | 0 |
| C10A A16U U32A | 0.05 |
| G33U G40A C42U C46A | 0.06 |
| C3A A6C U9C A26G | 0.04 |
| C15A C23A G27C G30C | 0.08 |

| Variant | self-cleavage |
| --- | --- |
| G19U U20G G21A G22C C23A C31A G35U U38G C46A | 0.1 |
| U9A A16U A24U C45G | 0.02 |
| A14G G21U A26C G44C C45U | 0.02 |
| G2U G19U C23G C31G | 0.01 |
| A14C U20A G27U C37A U38A | 0.01 |
| G2A A6U G7A C8G G44A C45G | 0.06 |
| G5A U9A C10U A26C | 0.01 |
| G17C G19A C31G G35A C42U | 0.05 |
| U20C G35C U43A G44U | 0.02 |
| A6U G21U G30U U34C U43A | 0.05 |
| U28A C31U A39U | 0.08 |
| A4C C45A C46U | 0.1 |
| U34A G40U C46G | 0.01 |
| C37A A41G U43G | 0.07 |
| C10G G21C C23G G29U G33U | 0.01 |
| G2A G5A G7A C8A A11G A41U | 0.11 |
| G2U C3A G5U G40U | 0.12 |
| C8G C13A G17C G35A C37A | 0.01 |
| C18A G30A U34G C42A | 0.01 |
| U9A C10U C23U C42G | 0.01 |
| G7A A14U C15A G21U A26C | 0.08 |
| U20A A24G U28C | 0.52 |
| A11U A24C G33U G44U C46U | 0.03 |
| A4U C10A G21U U43A | 0.05 |

| Variant | self-cleavage |
| --- | --- |
| A16U U28G G40U | 0.09 |
| A25C C37U A41U U43A C45A | 0.01 |
| A6G U34G G44A | 0.02 |
| G5A C23G A24U U38A A39U U43C | 0.03 |
| C13A G19U G29U G40C | 0.04 |
| G1A G22C U43A | 0.03 |
| C15G A16G G19C C42A | 0.03 |
| C31G G33C C46U | 0.09 |
| C10U U32A U38A | 0.02 |
| C8G U38G G40A | 0.03 |
| A12C C31U A39G C42G | 0 |
| G2U A14C G22C C46U | 0.06 |
| G1C C13A G33U | 0.01 |
| A39U G44U C46U | 0.05 |
| G2C A6G C10U A14C C15G G19U | 0.01 |
| C10A U20C C42U | 0.01 |
| G17A G36A U43A | 0.06 |
| G1C A26G G30C U34G A39C G40A | 0 |
| A4G U20A G22A G35U | 0.2 |
| G1U C8U C13A C15G C31U G35U | 0.14 |
| A6C G7U G22A | 0.24 |
| A14C A26U A39G | 0.04 |
| U20C G22C A39C | 0.01 |
| C8G G22A A26G G27C G33A G40C | 0.03 |

| Variant | self-cleavage |
| --- | --- |
| C8G C10A A11G | 0.01 |
| G2C A4G G7C C8U C15A C23G | 0.39 |
| A6G G7U C31G G44U C45A | 0.01 |
| C10G A12C G36C | 0.05 |
| A12C C15A U28A G44U | 0.01 |
| A12U A24G G44U | 0.11 |
| C8A A26C C37U | 0.11 |
| A24C A26C G29U | 0.33 |
| G17U G19A U34C C37G G40C | 0.03 |
| A14C C15G U34C G40C | 0.02 |
| G33A U38G C42U C46U | 0.08 |
| A6U A39U U43C | 0.14 |
| G21C U32C G40U C42A G44A | 0.15 |
| G1A G19A G22U C23A U28A A41C | 0.06 |
| G7U U9G U32C G33U | 0.04 |
| A4G A14C A25G G35U A39U | 0.18 |
| A16G G27A G33U | 0.14 |
| G1C A6U C42G | 0.03 |
| G22U G27A G33A U34G | 0.08 |
| G27U G30A C46G | 0.25 |
| A4U A12U C31U G40U | 0.05 |
| G2U U9C G22U A26G | 0.04 |
| G1A C23U C37G | 0.01 |
